These are yes or no findings as the source states them, for the method shown. Some entries that bind do so weakly or less than the wild type.
Assays:
[1] = target: recombinant CaM6 (untagged) (UniProt Q03509); assay: native gel or EMSA; 240 pmol CaM with an equal amount of synthetic peptide in 20 μl 25 mM Tris-HCl pH 7.5, 100 μM CaCl2, 60 min, room temperature; non-denaturing PAGE with 100 μM CaCl2; both purified
[2] = target: recombinant CaM6 (untagged) (UniProt Q03509); assay: native gel or EMSA; CaM (240 pmol) with different amounts of LL22 or pLL22 peptide in the ratios indicated, 20 μl, 60 min, then native PAGE; both purified
[3] = target: recombinant CaM6 (untagged) (UniProt Q03509); assay: condition: 240 pmol peptide with 240 pmol CaM in 20 μl; native gel or EMSA; 240 pmol CaM with an equal amount of synthetic peptide in 20 μl 25 mM Tris-HCl pH 7.5, 100 μM CaCl2, 60 min, room temperature; non-denaturing PAGE with 100 μM CaCl2; both purified
[4] = target: recombinant CaM6 (untagged) (UniProt Q03509); assay: native gel or EMSA; as a9 but with 2 mM EGTA in the reaction and the gel (absence of Ca2+); both purified

Binder | binding [3] | further results
LKWKKLLKLLKKLLKLG [W3 peptide (high affinity CaM-binding peptide)] |  | binding [1]: binds
LRQFVRYSRLKQFALRALASTL (phosphoserine at Ser-360) [pLL22 peptide (LL22 phosphorylated at Ser-360)] |  | binding [2]: binds
RKPWATISDSAKDFVKKLLVK [RK21 peptide (C-terminal end of the CPK28 kinase domain)] | no binding | 
LRQFVRYSRLKQFALRALASTL (source: synthetic peptide (LifeTein)) [LL22 peptide (CPK28 autoinhibitory junction)] |  | binding [4]: no binding (condition: in the absence of Ca2+ (2 mM EGTA)); binding [1]: binds
FVKKLLVKDPRARLTAAQALSHAWVR [FR26 peptide (C-terminal end of the CPK28 kinase domain)] | no binding | 

Second part, led by results:

binding [3] | Binder | further results
no binding | RILSKKGNRYSEKDAAVVVRQMLKVAG [RG27 peptide (predicted CaM-binding site of CPK28)] | 
no binding | FIKPGKRFHDIVGSAYYVA [FA19 peptide (predicted CaM-binding site of CPK28)] | 

From publication PMC5354511, “Autophosphorylation-based Calcium (Ca^2+) Sensitivity Priming and Ca^2+/Calmodulin Inhibition of Arabidopsis thaliana Ca^2+-dependent Protein Kinase 28 (CPK28)*^([image sbox.jpg])^♦” (The Journal of Biological Chemistry, 2017)
